Laboratory results taken from PubChem BioAssay AID1794842 (National Center for Advancing Translational Sciences (NCATS), 2023).
Among all 2,800 compounds or so, fewer than 10 were called active. The call rests on the fitted dose curve; in most records, active means well fitted curve in the direction sought with a large enough effect; inconclusive means small, poorly fitted or top-dose-only effect, or another doubt; inactive means no such curve, though single readings can be large or run the other way. The list shows a part of the results.

Molecular target: Metallo-beta-lactamase type 2 (Klebsiella pneumoniae) (UniProt C7C422)
UniProt C7C422, sequence (C7C422 whole entry, looked up): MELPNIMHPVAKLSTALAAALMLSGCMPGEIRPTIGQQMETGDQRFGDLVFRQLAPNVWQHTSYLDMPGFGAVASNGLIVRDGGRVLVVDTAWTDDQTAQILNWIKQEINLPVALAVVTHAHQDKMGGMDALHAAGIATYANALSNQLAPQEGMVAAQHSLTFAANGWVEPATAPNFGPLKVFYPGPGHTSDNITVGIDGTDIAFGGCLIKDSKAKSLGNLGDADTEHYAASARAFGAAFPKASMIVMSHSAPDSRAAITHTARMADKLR
Experiment: qHTS to identify inhibitors of the New Delhi Metallo-beta-lactamase (NDM): Meropenem screen against the machine-based learning selections. Further: % of control where 0% means no effect.
Details: Purified NDM-1, meropenem hydrolysis, absorbance 300 nm; at 38.4 µM (top of the series) unless noted
Procedure, shortened: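 NDM-1 (2 nM final) in 50 mM HEPES pH 7.0, 1 uM Zn2SO4, 0.01% Tween20 was preincubated with compounds for >30 min. Nitrocefin (16.7 uM final) was read at 485 nm after 15 min, and meropenem (50 uM final) at 300 nm after 30 min.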

Activity change, negative = inhibition, inactive:
C[S+](=O)([O-])c1ccc(-c2cnc3n[nH]c(-c4ccccc4)c3n2)cc1 2.47% [at 57.5 µM]
Cn1cc(-c2cnc3[nH]cc(CC(=O)Nc4cccnc4)c3c2)cn1 0.84% [at 57.5 µM]
Cc1ccc(-c2nnc([C@H]3CCN(C(=O)CCC(=O)O)C3)o2)cc1 5.13% [at 57.5 µM]
O=C(O)c1ccc(NCc2nc3c(n2Cc2ccccc2)C(=O)N(Cc2cccc(Cl)c2)CCN3)cc1 7.74%
O=C(NC1CCC(O)CC1)c1ccc(-c2ncc3cnc(-c4ccccc4)cn23)cc1 (centres undefined) 0.926% [at 76.7 µM]
COc1cc(C)c2c(c1C)C[C@H](C(C)C(=O)NCc1cccs1)CC2 (some centres undefined) 1.31% [at 57.5 µM]
CC(=O)N1CCN(C(=O)C[C@@H]2c3nc(NC(=O)C(C)(C)C)sc3C[C@@H]3[C@](C)(CO)[C@H](O)CC[C@]32C)CC1 4.25%
Cc1ccc(OC2(C(=O)NC(C)c3nn[nH]n3)CCNCC2)cc1 (centres undefined) 18.8%
O=C(N[C@@H]1CCN(Cc2cccc3nonc23)C[C@H]1O)c1cccnc1 0.258%
c1ccc(CCN2CCNc3cc(NCc4cccnc4)ncc3C2)cc1 2.19% [at 57.5 µM]
CN1CCC(N2CC3(C2)C(=O)N(C)C(=O)[C@@H]2C[C@@H](O)CN23)CC1 14.6% [at 57.5 µM]
O=C(O)C1Cc2nc[nH]c2CN1C(=O)c1cccc(-n2cccn2)c1 (centres undefined) 28.1%
Oc1cccc(-c2cnc3n[nH]c(-c4ccccc4)c3n2)c1 1.8% [at 76.7 µM]
COc1ccc2[nH]c3c(c2c1)CCN(C)C31CCN(C(=O)c2ccccn2)CC1 -2.02%
OC(c1cccc(C(F)(F)F)c1)c1nc(Nc2ccc(N3CCOCC3)cc2)n[nH]1 (centres undefined) 52.7% [at 57.5 µM]
N[C@@H](Cc1cnc[nH]1)C(=O)N1CCC2(CC1)Nc1ccccc1NC2=O 23.4%
Clc1ccc(-c2cnc([C@@H]3COCCN3C3CCNCC3)[nH]2)s1 10.7% [at 57.5 µM]
Cn1ccc(NC(=O)C2(C)CCCc3cnc(NCc4ccccc4)nc32)n1 (centres undefined) 1.43% [at 57.5 µM]
COc1ccccc1Oc1ncccc1CNC(=O)Nc1cccc(C#N)c1 -0.678%
CSc1ccc(-c2nc(CN(C)Cc3cnccn3)c(C)o2)cc1 38.9%
O=C(CCn1cnnn1)N1CCC2(CC1)Nc1ccccc1NC2=O -4.74%
CC[C@H]1CN(C(C)=O)CC[C@H]1CC(=O)NC(C)C 1.4% [at 76.7 µM]
OC(c1nc(Nc2cccc(Cl)c2)n[nH]1)C1CC1 (centres undefined) 1% [at 0.0117 µM]
Cc1cccc(-c2cccc(CCOc3cnc4c(ccn4CC(=O)O)c3)c2)c1 10.7% [at 57.5 µM]
CCc1cn(C[C@H](NC2CCOCC2)C(=O)O)c(=O)[nH]c1=O 48.7% [at 57.5 µM]
COc1ccc(C[C@H](NC(=O)[C@@]2(O)C[C@@H](O)[C@H](O)[C@@H](NC(=O)Nc3ccc(C(C)=O)cc3)C2)C(N)=O)cc1 3.74%
O[C@@H]1CCN(Cc2nc(C3(O)CCN(C4CCCC4)CC3)cs2)C1 -2.53% [at 57.5 µM]
O=C(NC1CCCN(c2cc(-c3ccc(F)cc3)[nH]n2)C1)c1cccc(Cl)c1 (centres undefined) 3.59%
O=C(Nc1ccccc1)c1cnc2n1CCN(Cc1cccc(O)c1)CC2 2.61% [at 57.5 µM]
CC(=O)N[C@@H]1CCC[C@@H](C(=O)NC2CCOCC2)CC(=O)N(C)C1 0.046% [at 57.5 µM]
O=C(NCc1nncn1C1CCCCC1)C1NCCc2[nH]cnc21 (centres undefined) 8.92%
COc1ccc(CN2CCC3(CCC(=O)N(Cc4ccncc4)C3)CC2)c(F)c1 -1.3%
NC(=O)c1cccc(-c2cc3c(cn2)CN(CCc2ccccc2)CCN3)c1 -0.665% [at 57.5 µM]
CC1=C[C@@H](CNS(=O)(=O)c2ccc(F)cc2)[C@H](C(C)C)C[C@H]1CC(=O)NCCN(C)C -3.42%
N#Cc1cccc(NC(=O)c2cccc(CN3CCN(CCO)CC3)c2)c1 0.293%
O=C(N[C@H](Cc1ccncc1)C1CC(O)C1)c1cccn1C1CC1 (some centres undefined) -0.0289%
Cn1cc(CN[C@H]2C[C@H]3C(=O)NC[C@@H](CCC(=O)N4CCc5ccccc54)N3C2)c2ccccc21 -1.57%
O=C(Nc1ccc(-c2nnc3n2CCCC3)cc1)c1ccc2c(c1)OCO2 10.4%
COc1cccc(CCC(=O)N2CCC3(CC2)N(c2ccccc2)C(=O)CS3(=O)=O)c1 0.744%
COc1ccc(CNC(=O)C[C@@H]2C[C@H]3O[C@H](CNC(=O)NC(C)C)[C@@H](O)[C@H]3O2)cc1 -0.0225% [at 57.5 µM]
O=C(c1ccncc1)N1CC[C@H](c2nnc(-c3ccncc3)o2)C1 -2.73% [at 57.5 µM]
COCc1nnc2n1CCC(NC(=O)COc1ccc(Cl)cc1)CC2 (centres undefined) 1.62%
Cc1cccc(N(C)C(=O)Cn2c(N3CCc4ccccc4C3)nc(C)cc2=O)c1 -2.52%
O=C(NC[C@H]1OC[C@@H](NCc2cccs2)[C@@H]1O)Nc1ccccc1 -0.201% [at 57.5 µM]
COCCNc1ncccc1-c1noc([C@@H]2CCCN2CC(C)(C)C)n1 2.51% [at 57.5 µM]
O=C(O)c1ccc(C2CCCN(C(=O)c3cccc4cccnc34)C2)cc1 (centres undefined) 2.45%
c1ccc(Nc2cc3c(cn2)CN(Cc2ccsc2)CCN3)cc1 -0.268% [at 57.5 µM]
C[C@]1(CO)[C@H]2Cc3sc(NC(=O)C4CCCCC4)nc3[C@@H](CC(=O)N3CCOCC3)[C@]2(C)CC[C@H]1O -0.0233%
C[C@@H](NS(=O)(=O)c1ccc(Cl)cc1)c1onc(-c2cccnc2)c1C(=O)O 5.47% [at 57.5 µM]
